Test results reported in PubChem BioAssay AID1347165 (National Center for Advancing Translational Sciences (NCATS), 2019).
Out of some 220,000 compounds screened, about 5,700 (2.6%) were called active. The inconclusive results got no clear call from the source; some entries with a clear call stand among them for comparison. The call rests on the fitted dose curve; in most records, active means well fitted inhibition curve with a large enough effect; inconclusive means small, poorly fitted or top-dose-only effect; inactive means no such curve, though single readings can be large or run the other way. Where the call is inconclusive, the potency comes from a doubtful curve fit.

target: Lysine-specific demethylase 5B (Homo sapiens) (UniProt Q9UGL1); assay: Primary screen for KDM5B Histone Demethylases FDH-coupled qHTS; conditions: FDH-coupled NADH fluorescence (FDH is formaldehyde dehydrogenase); activity change, negative = inhibition: at 57.7 µM (top of the series) unless noted; further: nearly all actives have a fitted effect of over 70% in size; on activity change, negative = inhibition: 0% is about no effect
Method in brief: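 Measured: NADH fluorescence change, 30 min, RT. System: KDM5BΔAP 200 nM final, H3K4me3 peptide, α-KG, Fe(II), ascorbate, NAD⁺ plus FDH, pH 7.5 HEPES. Compounds: titrated, 10 min pre-incubation with enzyme.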
Potency means the concentration at half of the fitted maximal effect; tags describe the fitted curve by direction and shape.

Chain of UniProt Q9UGL1 (Q9UGL1 whole entry, looked up): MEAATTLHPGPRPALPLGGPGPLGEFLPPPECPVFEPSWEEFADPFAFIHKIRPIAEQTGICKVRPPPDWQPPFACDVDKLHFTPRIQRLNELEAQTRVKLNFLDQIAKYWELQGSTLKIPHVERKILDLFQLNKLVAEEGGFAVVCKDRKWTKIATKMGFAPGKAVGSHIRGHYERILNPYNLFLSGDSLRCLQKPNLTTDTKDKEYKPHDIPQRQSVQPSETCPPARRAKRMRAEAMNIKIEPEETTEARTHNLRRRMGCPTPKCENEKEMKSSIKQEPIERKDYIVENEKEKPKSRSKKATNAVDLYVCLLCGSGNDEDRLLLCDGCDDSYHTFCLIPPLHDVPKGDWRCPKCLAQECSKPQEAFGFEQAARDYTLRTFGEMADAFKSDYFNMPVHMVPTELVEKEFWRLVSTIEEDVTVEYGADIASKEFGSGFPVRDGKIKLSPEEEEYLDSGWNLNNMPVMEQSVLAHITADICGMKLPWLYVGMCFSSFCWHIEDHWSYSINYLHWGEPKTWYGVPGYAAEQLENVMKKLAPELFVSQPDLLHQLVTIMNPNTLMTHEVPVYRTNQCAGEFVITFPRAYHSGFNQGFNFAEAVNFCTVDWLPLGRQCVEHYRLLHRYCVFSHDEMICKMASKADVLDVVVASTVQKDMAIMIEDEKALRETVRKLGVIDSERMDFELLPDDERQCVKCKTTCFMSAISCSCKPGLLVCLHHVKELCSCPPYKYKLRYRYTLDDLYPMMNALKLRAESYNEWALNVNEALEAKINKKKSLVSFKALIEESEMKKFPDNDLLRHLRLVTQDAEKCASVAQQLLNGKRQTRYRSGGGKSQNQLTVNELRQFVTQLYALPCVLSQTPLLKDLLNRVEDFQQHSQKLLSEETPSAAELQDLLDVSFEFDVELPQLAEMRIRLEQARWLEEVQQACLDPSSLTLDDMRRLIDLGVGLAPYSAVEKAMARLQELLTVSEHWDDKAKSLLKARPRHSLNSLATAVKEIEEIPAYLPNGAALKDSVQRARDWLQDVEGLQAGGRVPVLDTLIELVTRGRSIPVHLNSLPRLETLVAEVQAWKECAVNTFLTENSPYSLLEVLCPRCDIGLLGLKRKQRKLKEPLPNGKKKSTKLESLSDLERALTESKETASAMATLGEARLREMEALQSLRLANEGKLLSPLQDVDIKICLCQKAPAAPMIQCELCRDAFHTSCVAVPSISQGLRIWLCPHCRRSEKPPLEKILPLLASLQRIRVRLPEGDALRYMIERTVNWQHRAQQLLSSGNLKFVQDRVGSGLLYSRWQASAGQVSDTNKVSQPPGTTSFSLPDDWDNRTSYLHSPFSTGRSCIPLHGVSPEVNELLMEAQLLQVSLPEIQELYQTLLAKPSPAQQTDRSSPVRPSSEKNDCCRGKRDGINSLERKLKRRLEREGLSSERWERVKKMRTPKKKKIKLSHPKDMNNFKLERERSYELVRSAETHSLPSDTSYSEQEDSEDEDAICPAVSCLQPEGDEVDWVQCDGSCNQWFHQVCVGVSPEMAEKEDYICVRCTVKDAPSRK

Row | SMILES | Potency | activity change, negative = inhibition
1 | CCn1cnnc1-c1nn(C)c2c1CN(C(=O)Cc1ccc(NC(C)=O)cc1)CC2 | inconclusive: 25.1 µM [inhibitor, partial curve, poor fit] | –
2 | COCCCNC(=O)Nc1cc(C(=O)NCc2ccc(OC)cc2)ccc1N1CCCC1 | inconclusive: 25.1 µM [inhibitor, partial curve, poor fit] | –
3 | Cc1ccc(CN(C)C(=O)c2ccccc2OC2CCN(Cc3ccccn3)CC2)o1 | inconclusive: 31.6 µM [inhibitor, partial curve, poor fit] | –
4 | FC(F)(F)c1cccc(NC(=S)NC2CC2)c1 | – | inactive: 12.1%
5 | CCOc1ccc(-c2nc(CN(CCO)Cc3csc(-c4ccc(OCC)c(OC)c4)n3)cs2)cc1OC | inconclusive: 28.2 µM [inhibitor, single point] | –
6 | CCCCCCCNC(=O)CCC(=O)NCCC | – | inactive: -13.2%
7 | O[C@@H]1C[C@@H](c2nnc3n2CCN(Cc2ccc(F)c(F)c2)C3)N(Cc2ccccc2)C1 | – | inactive: -7.14%
8 | CCCCN(C)C(=O)CN1C(=O)CCn2nc(-c3cn(C)c4ccccc34)cc21 | inconclusive: 1.12 µM [inhibitor, partial curve, poor fit] | –
9 | COc1ccc(-c2nc(CCNC(=O)c3cccs3)cs2)cc1OC | inconclusive: 28.2 µM [inhibitor, partial curve, poor fit] | –
10 | CCC(C)NC(=O)NCc1c(-n2cccc2)sc2c1CCN(C)C2 (stereo unspecified) | inconclusive: 39.8 µM [inhibitor, single point] | –
11 | CCN1c2cc(C(=O)Nc3ccc4c(c3)OCCO4)ccc2C(=O)N2CCCC21 (stereo unspecified) | inconclusive: 10 µM [inhibitor, partial curve, poor fit] | –
12 | CCc1cccc(C)c1NC(=O)CN1C(=O)c2c(c3ccccc3n2C)C1c1ccc(OC)cc1 (stereo unspecified) | inconclusive: 35.5 µM [inhibitor, partial curve, poor fit] | –
13 | CCn1ccc2cc(S(=O)(=O)N3CCC(C(=O)NCCc4ccc(SC)cc4)CC3)ccc21 | inconclusive: 25.1 µM [inhibitor, partial curve, poor fit] | –
14 | COc1cc2cc(CNc3ccc(C)cc3)c(=O)n(CC(=O)Nc3ccc(C(C)C)cc3)c2cc1OC | inconclusive: 7.08 µM [inhibitor, partial curve, poor fit] | –
15 | CN1CCC2(Cc3ccccc3CN(C(=O)CCN)C2)C1 (stereo unspecified) | inconclusive: 89.1 µM [inhibitor, partial curve, poor fit] | –
16 | Cc1ccc(CN(C(=O)COc2ccc(C(C)(C)C)cc2)C2CCS(=O)(=O)C2)o1 (stereo unspecified) | inconclusive: 0.708 µM [inhibitor, full curve, poor fit] | –
17 | Cc1ccc(NCc2cccn2-c2nnc(N3CCC(C(=O)NCCc4ccccc4)CC3)s2)cc1 | inconclusive: 1.58 µM [inhibitor, full curve, poor fit] | –
18 | CC1CCC2(CC1)OCC(C(=O)NCC1CCCO1)N2C(=O)c1cccc([N+](=O)[O-])c1 (stereo unspecified) | inconclusive: 15.8 µM [inhibitor, partial curve, poor fit] | –
19 | Cc1nn(CCc2nc(-c3ccc4ccccc4c3)cs2)c2[nH]c(=O)cc(C(F)(F)F)c12 | inconclusive: 2 µM [inhibitor, full curve, poor fit] | –
20 | Cc1cc(C)nc(CC#N)n1 | – | inactive: 9.56%
21 | CC(C)c1nc2oc3c(N(CCO)Cc4ccccc4)ncnc3c2c2c1CCC2 | inconclusive: 35.5 µM [inhibitor, partial curve, poor fit] | –

Row | SMILES | Potency | activity change, negative = inhibition
22 | COc1cccc(-c2nc(SCC(=O)Nc3nccs3)c(-c3ccc(Cl)cc3)[nH]2)c1 | inconclusive: 10 µM [inhibitor, partial curve, poor fit] | –
23 | CCOc1ccc(C(=O)Nc2ccc(-c3nc4cc(C(C)C)ccc4o3)cc2)cc1Cl | inconclusive: 28.2 µM [inhibitor, partial curve, poor fit] | –
24 | CCCC1c2nccn2CCCN1C(=O)c1cc(C)no1 (stereo unspecified) | – | inactive: -4.57%
25 | CCc1noc(-c2ccn3c(CNC(=O)Cc4ccccc4OC)nnc3c2)n1 | inconclusive: 31.6 µM [inhibitor, partial curve, poor fit] | –
26 | COC(=O)c1ccc2nc(C[C@@H]3C[C@@H](C(C)C)[C@H](CNC(=O)C(C)C)C=C3C)[nH]c2c1 | inconclusive: 10 µM [inhibitor, single point] | –
27 | CC(C)NC(=O)CCCC(=O)NCC1(c2ccccc2)CC1 | – | inactive: 15.3%
28 | COc1ccccc1-c1nccc2c(=O)cc(-c3ccccn3)oc12 | inconclusive: 31.6 µM [inhibitor, single point] | –
29 | COc1ccc(-c2cc(C(=O)NCc3ccc(F)cc3)c3ccccc3n2)c(OC)c1 | inconclusive: 35.5 µM [inhibitor, partial curve, poor fit] | –
30 | CCCc1noc(-c2ccn3c(CNC(=O)c4ccc(C)c(C)c4)nnc3c2)n1 | active: 4.47 µM | –
31 | CS(=O)(=O)N1CCn2cc(C(=O)Nc3ccc(Cl)cc3Cl)nc2C1 | inconclusive: 56.2 µM [inhibitor, partial curve, poor fit] | –
32 | COCCN1CCCC(c2[nH]ccc2C(=O)NCCc2nc3ccccc3[nH]2)C1 (stereo unspecified) | – | inactive: 10.4%
33 | CCCCN(CC)Cc1c(C)[nH]c2c(ccc3ccccc32)c1=O | inconclusive: 25.1 µM [inhibitor, partial curve, poor fit] | –
34 | Cc1cc(=O)oc2c(C)c(OCC(=O)Nc3nc4ccccc4[nH]3)ccc12 | – | inactive: 13.6%
35 | CCOC(=O)N1CCc2c(sc3c2C(=O)NC(c2cc(OC)c(O)c(OC)c2)N3)C1 (stereo unspecified) | inconclusive: 14.1 µM [inhibitor, partial curve, poor fit] | –
36 | COc1ccc(-c2nc(-c3c(C)noc3C)cc3cc(CO)oc23)cn1 | active: 35.5 µM | –
37 | CCCN(CCC)CCCNC(=O)Cn1cc2c(n1)-c1c(oc(C(=O)N3CCCC3)c1C)CC2 | inconclusive: 12.6 µM [inhibitor, partial curve, poor fit] | –
38 | CN1CCC(CNc2nccc(C3(c4ccccc4Cl)CCNCC3)n2)C1 (stereo unspecified) | inconclusive: 15.8 µM [inhibitor, partial curve, poor fit] | –
39 | Cc1oc(-c2cccc(Cl)c2)nc1CN1CCCC(C(=O)N2CCN(c3ccc(F)cc3)CC2)C1 (stereo unspecified) | inconclusive: 1.58 µM [inhibitor, full curve, poor fit] | –
40 | CC(=O)c1ccc(C(=O)Nc2nc3ccc(S(=O)(=O)N(C)C)cc3s2)cc1 | – | inactive: 3.94%
41 | O=C(Cn1c(=O)c2ccccc2n(CC(=O)Nc2ccc(F)cc2)c1=O)NCCc1ccccc1 | inconclusive: 1.58 µM [inhibitor, full curve, poor fit] | –
42 | Cn1nc(C2CCN(C(=O)Cc3ccccc3)CC2)c2c1CCOC2 | – | inactive: 15.5%

Row | SMILES | Potency | activity change, negative = inhibition
43 | CCNC(=O)NC(=O)CN1CCN(c2ccccc2Cl)CC1 | – | inactive: -4.77%
44 | COc1cc(C(=O)/C(=C/c2ccncc2)c2nc3ccccc3o2)cc(OC)c1OC | inconclusive: 28.2 µM [inhibitor, single point] | –
45 | COc1ccc(-c2cc3c(=O)n(CCNC(=O)c4ccc(OC)c(OC)c4)ccn3n2)cc1 | inconclusive: 28.2 µM [inhibitor, partial curve, poor fit] | –
46 | CN1CCN(C(=O)c2ccc3nc(-c4ccc(F)cc4)c(-c4ccc(F)cc4)nc3c2)CC1 | inconclusive: 11.2 µM [inhibitor, partial curve, poor fit] | –
47 | Cn1cc(C(=O)c2ccc(Cl)cc2Cl)cc1C(=O)NN | inconclusive: 22.4 µM [inhibitor, single point] | –
48 | O=C(CSc1nc2c([nH]c3ccccc32)c(=O)n1-c1cccc(Cl)c1)N1CCOCC1 | inconclusive: 22.4 µM [inhibitor, single point] | –
49 | O=C1C(Nc2ccccc2)=CC(c2ccccc2)N1c1ccccc1 (stereo unspecified) | inconclusive: 39.8 µM [inhibitor, single point] | –
50 | O=C(COC(=O)c1ccc[nH]c1=O)NCCc1ccc(Cl)cc1Cl | inconclusive: 28.2 µM [inhibitor, single point] | –
51 | O=c1cc(CN2CCN(c3ccc(F)cc3)CC2)c2cc(O)ccc2o1 | – | inactive: 6.05%
52 | N#Cc1ccc(OCCN2CCCc3ccccc32)cc1 | inconclusive: 22.4 µM [inhibitor, single point] | –
53 | O=C([C@@H]1C[C@H](Oc2ccccc2)CN1C(=O)c1cc2ccccc2[nH]1)N1CCOCC1 | inconclusive: 7.08 µM [inhibitor, partial curve] | –
54 | C/C(=N/Nc1cc(C)c2ccccc2n1)c1cccs1 | inconclusive: 28.2 µM [inhibitor, partial curve, poor fit] | –
55 | Cc1nc2nc3ccn(CCCN(C)C)c(=O)c3c(-c3ccccc3)n2n1 | inconclusive: 39.8 µM [inhibitor, single point] | –
56 | CCC(NC(=O)Nc1cc(OC)ccc1OC)c1c(-n2cccc2)sc2c1CCN(CC)C2 (stereo unspecified) | inconclusive: 31.6 µM [inhibitor, single point] | –
57 | CCCNc1cc(N2CCC(CCC(=O)Nc3cccc(C)c3)CC2)ncn1 | – | inactive: 5.58%
58 | COc1ccc(OC)c(C2CC(=O)Nc3c(C(=O)O)cn(-c4ccc(F)cc4)c32)c1 (stereo unspecified) | inconclusive: 12.6 µM [inhibitor, partial curve, poor fit] | –
59 | Cc1cccc2sc(NS(=O)(=O)c3ccccc3)nc12 | – | inactive: 15.8%
60 | O=C(NCc1ccc2c(c1)CCN2C(=O)c1ccc(F)cc1)c1ccco1 | inconclusive: 25.1 µM [inhibitor, partial curve, poor fit] | –
61 | O=C(Nc1ccc2oc(-c3ccccc3Br)nc2c1)c1ccc2c(c1)OCO2 | inconclusive: 39.8 µM [inhibitor, single point] | –
